Measurements as given in PubChem BioAssay AID686978 (National Center for Advancing Translational Sciences (NCATS), 2013).
Where “and” joins values, the source holds several entries; their conditions need not be identical. Equal values may be shown once. The campaign covered roughly 420,000 compounds. About 64,000 (15%) were called active. This list was built around the results that the source calls inconclusive (neither active nor inactive); the mix of calls is not that of the screen. Calls come from the whole dose curve; as a rule, active = well fitted inhibition curve with a large enough effect; inconclusive = small, poorly fitted or top-dose-only effect; inactive = flat fitted curve, though single readings scatter. Potencies of inconclusive entries are doubtful fits and often do not repeat.
% is set by controls: 0 for no effect and ±100 for the full control effect; potency is the fitted concentration of half-maximal effect; tags give direction and shape of the fitted curve.

Assay: qHTS for Inhibitors of human tyrosyl-DNA phosphodiesterase 1 (TDP1): qHTS in cells in absence of CPT; note: nearly all actives have a fitted effect of over 55% in size
Details: DT40 Tdp1-/- hTDP1 cells, no CPT, ATP luminescence, 48 h; activity change, negative = growth inhibition: at 46.2 µM (top of the series) unless noted
Method in brief: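 Cells were dispensed at 400 per well, compounds added by pin tool, plates incubated ≥48 hr at 37 °C, then CellTiter-Glo added for 30 min at room temperature before luminescence reading. Line: DT40 Tdp1-/- complemented with hTDP1; camptothecin omitted.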
In the case of CCOc1ccc(NC(=O)CSc2nnnn2C2CC2)cc1S(=O)(=O)N1CCCC1, the Potency is reported as “inactive”. In the case of CCC(=O)Nc1cccc(NC(=O)c2cc3ccccc3o2)c1, the Potency is reported as inconclusive: 29.1 µM [inhibitor, single point]. In the case of Cc1cc(S(=O)(=O)NCCN(C)C)c(C)s1, the Potency is reported as “inactive”. In the case of CN(C)c1ccc(C(C[N+](=O)[O-])c2c(N)n(C)c(=O)n(C)c2=O)c(F)c1C#N (stereo not drawn), the Potency is reported as active: 2.06 µM. In the case of COC(=O)Cn1c(=O)c2c(nc3n2CC(C)CN3CCc2ccccc2)n(C)c1=O (stereo not drawn), the Potency is reported as inconclusive: 32.6 µM [inhibitor, single point]. With COc1cccc(NC(=O)C(NC2CCCC2)c2ccccc2)c1 (stereo not drawn) the Potency was inconclusive: 29.1 µM [inhibitor, single point]. For CCCCNC(=S)N(CCO)Cc1cc2cc3c(cc2[nH]c1=O)OCCO3, the Potency was “inactive”. For Oc1ccccc1-c1cc(C(F)(F)C(F)F)[nH]n1, the Potency was inconclusive: 20.6 µM [inhibitor, partial curve]. With COc1cccc(-c2ccc3c(N)c(C(=O)c4ccc(F)cc4)sc3n2)c1 the Potency was inconclusive: 29.1 µM [inhibitor, single point]. In the case of COc1ccc(C(=O)Cc2ccc(F)cc2)c(OC)c1, the Potency is reported as inconclusive: 5.8 µM [inhibitor, full curve]. For O=C1c2ccccc2C(=O)N1CC(O)COc1ccccc1Cl (stereo not drawn), the Potency was “inactive”. For CCC(C)NC(=O)c1ccc2c(c1)N(Cc1ccccc1)C(=O)CS2 (stereo not drawn), the Potency was inconclusive: 23.1 µM [inhibitor, single point]. With O=C(O)/C(=C\c1cccs1)Sc1nnc(-c2ccc(F)cc2)o1 the activity change, negative = growth inhibition was inconclusive: -32.4% [inhibitor]. For CC(C)c1nc(Cl)c(C#N)c2c1CCC2, the Potency was inconclusive: 18.4 µM [inhibitor, single point]. In the case of CCN(CC)C(=O)C(C)N(C#N)c1nc(SC)nc(N(C)C)n1 (stereo not drawn), the Potency is reported as “inactive”. For Cc1ccc(NC(=O)C(=O)NCC2CCCN2S(=O)(=O)c2cccs2)cc1 (stereo not drawn), the Potency was inconclusive: 18.4 µM [inhibitor, single point]. For Cc1cc(NCCN(C)C)n2nc(-c3cccs3)cc2n1, the Potency was “inactive”. For O=C(CSc1nc2ccc(Cl)cc2[nH]1)NCCc1ccccc1, the Potency was active: 20.6 µM. With Nc1nonc1-n1nnc(C(=O)N/N=C/c2cccnc2)c1-c1ccccc1 the Potency was “inactive”. In the case of CN1CCN(S(=O)(=O)c2cccc(C(=O)NCc3ccc(Cl)cc3)c2)CC1, the Potency is reported as “inactive”. In the case of Cc1ccc(S(=O)(=O)N/N=C/c2ccc(C#N)cc2)cc1, the Potency is reported as inconclusive: 23.1 µM [inhibitor, single point]. For CCOC(=O)c1c(C)oc2nc(C)nc(NCC3CCN(Cc4ccc(F)cc4)CC3)c12, the Potency was inconclusive: 13 µM [inhibitor, partial curve]. For COc1ccc2sc(C)cc(=O)c2c1, the Potency was “inactive”. With NC(=O)c1ccc(-c2nc(-c3ccc4c(c3)OCO4)c(-c3ccccn3)[nH]2)cc1 the Potency was active: 18.8 µM. In the case of C=CCN1C(=O)[C@@H]2Cc3c([nH]c4ccccc34)C(c3ccc(O)cc3)N2C1=S (stereo partly drawn), the Potency is reported as active: 16.4 µM. With CC(=O)C1=C(O)CC(C)(C)CC1=NCc1nc2ccccc2[nH]1 the Potency was active: 16.4 µM. In the case of Cc1ccc(CSC2=Nc3ccccc3C3=NC(CCC(=O)NCc4cccs4)C(=O)N23)c(C)c1 (stereo not drawn), the Potency is reported as inconclusive: 11.6 µM [inhibitor, partial curve]. For COc1cccc(C(=O)O/N=C(\N)CS(=O)(=O)c2ccccc2)c1, the Potency was “inactive”. In the case of O=C(C(O)c1ccccc1)N1N=C(c2ccccc2)CC1(O)C(F)(F)F (stereo not drawn), the Potency is reported as inconclusive: 23.1 µM [inhibitor, single point]. For Brc1ccc(C2C3=C(Nc4ncnn42)c2ccccc2OC3c2ccncc2)cc1 (stereo not drawn), the Potency was inconclusive: 13 µM [inhibitor, partial curve]. For COc1ccc(NC(=O)C(=O)NCC(c2ccco2)N2CCc3ccccc3C2)cc1 (stereo not drawn), the Potency was inconclusive: 23.1 µM [inhibitor, single point]. In the case of COc1cccc(CNCc2ccc(OC)c3ccccc23)c1OC, the Potency is reported as active: 16.4 µM. In the case of Fc1ccccc1C1c2cccn2CCN1C(=S)Nc1cccc(Br)c1 (stereo not drawn), the Potency is reported as “inactive”. With NS(=O)(=O)c1ccc(CCNC(=O)c2cccc(OC(F)F)c2)cc1 the Potency was “inactive”. In the case of NC(=O)C1CCN(C2=C(Cl)C(=O)c3ccccc3C2=O)CC1, the Potency is reported as active: 2.91 µM. For COCCn1nnnc1C(C(C)C)N1CCCC(C)C1 (stereo not drawn), the Potency was “inactive”. With O=S(=O)(c1cnc[nH]1)N1CCc2ccccc21 the Potency was active: 23.1 µM. With CC(Sc1cccc[n+]1[O-])c1ccccc1 (stereo not drawn) the Potency was inconclusive: 23.1 µM [inhibitor, single point]. For CCOC(=O)c1oc2ccccc2c1NC(=O)c1cc(OC)cc(OC)c1, the Potency was inconclusive: 29.1 µM [inhibitor, single point]. With CCCC1NC(=O)NC(C)=C1C(=O)OCC (stereo not drawn) the Potency was “inactive”. In the case of Cc1ccc(C(C(=O)NCc2ccccc2)N(C(=O)c2csnn2)c2cccc3ccccc23)o1 (stereo not drawn), the Potency is reported as inconclusive: 11.6 µM [inhibitor, partial curve, poor fit]. For O=C(Nc1ccc(Cl)c(-c2nc3ccccc3o2)c1)c1cccc2c(Cl)cccc12, the Potency was “inactive”. In the case of COc1ccc(C(=O)NCCCN2CCOCC2)cc1S(=O)(=O)N1CCCc2ccccc21, the Potency is reported as “inactive”. With CCC(Oc1ccccc1)C(=O)N1CCN(Cc2cc(=O)n3nc(-c4cccc(C)c4)sc3n2)CC1 (stereo not drawn) the Potency was active: 23.1 µM. For COc1ccc(-c2cc(-c3cc(OC)ccc3O)[nH]n2)cc1, the Potency was inconclusive: 18.4 µM [inhibitor, single point]. In the case of CCOC(=O)c1ccc(N2CCN(c3cc(Cl)ccc3C)CC2)c(NC(=O)Nc2ccc(OCC)cc2)c1, the Potency is reported as active: 13 µM. In the case of CC(=O)c1c(C)[nH]c(C(=O)OCC(=O)Nc2cc(S(=O)(=O)N3CCCCC3)ccc2C)c1C, the Potency is reported as inconclusive: 7.31 µM [inhibitor, partial curve, poor fit]. For COc1ccc(CNC(=O)CN(c2ccccc2OC)S(=O)(=O)c2cccs2)cc1, the Potency was inconclusive: 29.1 µM [inhibitor, single point]. In the case of O=C(NCCC1=CCCCC1)NC12CC3CC(CC(C3)C1)C2, the Potency is reported as inconclusive: 18.4 µM [inhibitor, single point]. In the case of CC1CCN(S(=O)(=O)c2ccc(N/N=C(/C#N)C(N)=O)cc2)CC1, the Potency is reported as inconclusive: 13 µM [inhibitor, partial curve]. With O=C(NCc1ccccc1F)Nc1ccc([N+](=O)[O-])cc1 the Potency was active: 25.9 µM. For CC(C)NC(=O)Cn1cc(S(=O)(=O)N2CCCC2)c(S(=O)(=O)N2CCCC2)c1, the Potency was “inactive”. With O=C(NCCN1CCOCC1)c1cnn(-c2nccc(-c3cc4ccccc4o3)n2)c1C1CC1 the Potency was inconclusive: 23.1 µM [inhibitor, single point]. For CN(C)c1ccc(/C=C/c2sc3ccccc3[n+]2CCCCI)cc1, the Potency was active: 0.708 µM. In the case of COc1cc(Cl)c(NC(=O)CC(C)S(=O)(=O)c2cc3c(cc2C)NC(=O)CO3)c(OC)c1 (stereo not drawn), the Potency is reported as inconclusive: 14.6 µM [inhibitor, partial curve]. For Cc1cc(NC(=O)CSc2nc3c(c(=O)n2-c2ccc(Br)cc2)SCC3)no1, the Potency was inconclusive: 35.5 µM [inhibitor, single point]. For Cc1cccc2nc(=S)n(C(=O)c3ccco3)n12, the Potency was inconclusive: 9.2 µM [inhibitor, partial curve, poor fit]. With CC1CCCCC1NC(=O)c1ccc(S(=O)(=O)NCC2CCCO2)cc1 (stereo not drawn) the Potency was inconclusive: 29.1 µM [inhibitor, single point]. With Cc1ccc(NS(=O)(=O)c2c(C)nc3sccn3c2=O)c(Cl)c1 the Potency was inconclusive: 29.1 µM [inhibitor, single point]. With CCN(CC)C(=S)Nc1ccc(Cl)c(Cl)c1 the Potency was inconclusive: 8.2 µM [inhibitor, full curve, poor fit]. In the case of C#Cc1ccc(CN2CCC(Oc3cc(C(=O)NC4CC4)ccc3OC)CC2)cc1, the Potency is reported as inconclusive: 18.4 µM [inhibitor, single point]. In the case of Cc1[nH]nc2c1C(c1ccsc1)C1=C(CC(C)(C)CC1=O)N2 (stereo not drawn), the Potency is reported as “inactive”. With Cc1ccc(-n2c(=O)c3c(c4cc(C)ccc4n3C)n(CC(=O)NCC3CCCO3)c2=O)cc1 (stereo not drawn) the Potency was inconclusive: 20.6 µM [inhibitor, single point] and inconclusive: 25.9 µM [inhibitor, single point]. For CCOc1ccc2nc3c(cc2c1)CN(CCCO)C(=NCCOC)S3, the Potency was active: 14.6 µM. With O=C(CSc1cn(CCNC(=O)c2c(F)cccc2F)c2ccccc12)NCC1CCCO1 (stereo not drawn) the Potency was inconclusive: 25.9 µM [inhibitor, single point]. In the case of CC(C)CCn1c(Oc2ccc(Cl)cc2)nc2c1c(=O)n(C)c(=O)n2C, the Potency is reported as inconclusive: 0.651 µM [inhibitor, partial curve, poor fit]. With Cc1ccc(NC(=O)CSc2nncn3c2cc2sccc23)cc1F the Potency was inconclusive: 20.6 µM [inhibitor, single point]. With O=C(N/N=C\c1cc(Br)c(Br)o1)C1COc2ccccc2O1 (stereo not drawn) the activity change, negative = growth inhibition was inconclusive: -34.3% [inhibitor]. In the case of CCCc1nc(NCCCOCC)c2nnn(Cc3ccccc3)c2n1, the Potency is reported as inconclusive: 20.6 µM [inhibitor, single point]. In the case of CCC(=O)Nc1cccc(NC(=O)c2ccc3c(c2)OCCO3)c1, the Potency is reported as “inactive”. In the case of Cc1cc(C)c(C#N)c(SCC(=O)Nc2ccc(S(=O)(=O)Nc3onc(C)c3C)cc2)n1, the Potency is reported as “inactive”. With Cc1cccc(NC(=O)CCn2nc(C)c3c(C)n(-c4ccccc4)nc3c2=O)c1C the Potency was “inactive”. With Cc1nn(-c2ccc(N3CCCC3)nn2)c(C)c1CCC(=O)Nc1ccccc1 the Potency was inconclusive: 18.4 µM [inhibitor, single point].
